Source: the supplement of paper PMC10369915
The other results are listed elsewhere or left out. No stated cut-off is given here; in the data, active = 3.2 or more and inactive = the rest. Most of these values are background signal.

Columns and labels:
Assay in all cases: enrichment score (SH2-bound / input frequency) (ratio); bacterial display of known human phosphotyrosine sites (pTyr-Var adds point mutants) read by sequencing; higher = stronger binding; tyrosines were phosphorylated by kinases first
Details in all cases: peptide library: pTyr-Var
SHP2 C-SH2 domain E139D = molecular target: SHP2 C-SH2 domain E139D
[1] = molecular target: SHP2 C-SH2 domain wild-type
SHP2 N-SH2 domain L43F = molecular target: SHP2 N-SH2 domain L43F
SHP2 N-SH2 domain T42A = molecular target: SHP2 N-SH2 domain T42A
SHP2 N-SH2 domain T52S = molecular target: SHP2 N-SH2 domain T52S
[2] = molecular target: SHP2 N-SH2 domain wild-type
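Further: displayed peptides selected on beads carrying the immobilized SH2 domain, with library peptides lacking any tyrosine serving as negative controls.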

Row | Binder | enrichment score (SHP2 C-SH2 domain E139D) | enrichment score [1] | enrichment score (SHP2 N-SH2 domain L43F) | enrichment score (SHP2 N-SH2 domain T42A) | enrichment score (SHP2 N-SH2 domain T52S) | enrichment score [2]
1 | LTMAPYSSVSL [FAM81A_Y24] | inactive: 0.873 | inactive: 1.5 | inactive: 1.08 | inactive: 2 | inactive: 1.01 | inactive: 0.74
2 | LTMAPYSSVSV [FAM81A_Y24_L29V] | inactive: 0.925 | inactive: 2.19 | inactive: 1.58 | inactive: 2.82 | inactive: 1.56 | inactive: 0.972
3 | SSREGYVSHHN [FAM83B_Y433] | inactive: 1.01 | inactive: 0.694 | inactive: 0.732 | inactive: 0.655 | inactive: 0.783 | inactive: 0.521
4 | TESNNYIYKTL [FAM83B_Y637] | inactive: 0.648 | inactive: 1.03 | inactive: 0.468 | inactive: 0.534 | inactive: 0.475 | inactive: 0.452
5 | SNNFIYTTLGV [FAM83B_Y639_K640T_YF] | inactive: 1.03 | inactive: 0.854 | inactive: 0.835 | inactive: 1.05 | inactive: 0.834 | inactive: 0.744
6 | SNNFIYKTLGV [FAM83B_Y639_YF] | inactive: 0.719 | inactive: 0.638 | inactive: 0.737 | inactive: 0.686 | inactive: 0.574 | inactive: 0.788
7 | DLLMQHPKAQG [FAM83C_Y600_Y600H] | inactive: 0.874 | inactive: 0.721 | inactive: 0.81 | inactive: 0.623 | inactive: 0.825 | inactive: 0.718
8 | FQNSLYAPDYS [FAM92A_Y226_R222Q] | inactive: 0.899 | inactive: 0.719 | inactive: 0.769 | inactive: 0.595 | inactive: 0.994 | inactive: 1.15
9 | FQNSLYAPDFS [FAM92A_Y226_R222Q_YF] | inactive: 1.03 | inactive: 0.946 | inactive: 1.04 | inactive: 0.963 | inactive: 1.14 | inactive: 1.05
10 | FRNSLYAPDFS [FAM92A_Y226_YF] | inactive: 1.3 | inactive: 0.98 | inactive: 0.84 | inactive: 1.06 | inactive: 1.14 | inactive: 1.04
11 | FESPRYLQVHI [FANCA_Y488] | inactive: 1.19 | inactive: 1.3 | inactive: 2.83 | active: 5.86 | inactive: 3.09 | inactive: 1.71
12 | FESPRYLQVRI [FANCA_Y488_H492R] | inactive: 1.12 | inactive: 1.05 | inactive: 2.43 | active: 4.91 | inactive: 2.88 | inactive: 1.03
13 | FGSRLYKYAFK [FANCD2_Y458_L456R] | inactive: 0.501 | inactive: 0.522 | inactive: 0.469 | inactive: 0.438 | inactive: 0.508 | inactive: 0.609
14 | FGSLLYKFAFK [FANCD2_Y458_YF] | inactive: 0.333 | inactive: 0.749 | inactive: 0.395 | inactive: 0.27 | inactive: 0.298 | inactive: 0.736
15 | VPANRYDLLCL [FARSB_Y72] | inactive: 0.912 | inactive: 0.839 | inactive: 0.886 | inactive: 0.695 | inactive: 0.888 | inactive: 0.819
16 | LSQQVYRVNLS [FAT4_Y480_F475L] | inactive: 0.989 | inactive: 0.983 | inactive: 1.14 | inactive: 0.756 | inactive: 1.01 | inactive: 1
17 | GEAEQYVGGGG [FAT4_Y4980] | inactive: 0.453 | inactive: 0.491 | inactive: 0.64 | inactive: 0.539 | inactive: 0.558 | inactive: 0.61
18 | RSGNCYLDIRP [FBN1_Y1535] | inactive: 0.799 | inactive: 0.955 | inactive: 0.689 | inactive: 0.762 | inactive: 0.627 | inactive: 1.01
19 | CSGNCYLDIRP [FBN1_Y1535_R1530C] | inactive: 2.54 | inactive: 2.42 | inactive: 2.68 | inactive: 2.15 | inactive: 2.39 | inactive: 2.16
